Laboratory results: the supplement of paper PMC11417369
± gives the standard deviation of the averaged measurements. Some of the results follow.

What follows are sequences tested on PfAP2-EXP AP2 domain (GST-tagged) (assay: gcPBM binding intensity (ln(normalized median fluorescence intensity)); higher = stronger DNA binding).
Summary of the method: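 DNA-binding domains from P. falciparum, fused to GST and produced in E. coli, were put on an Agilent 4 × 180k double-stranded probe array for 1 h in 1× PBS holding 1% milk, 0.2 mg/ml BSA, 0.5% salmon testes DNA and 0.03% Triton X-100. Probes were primer-extended, 36 bp long and drawn from intergenic genomic regions, with negative controls included. After Alexa488 anti-GST antibody detection and a 488 nm scan, binding intensity was set as the highest Masliner-normalised natural-log median intensity across replicate spots of either probe orientation.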
With “AAAGGATACAGACACACACACACATATATATATATA [CACACA_site906]” the “gcPBM binding intensity (ln)” value was 10.1 ± 0.4.
For “GGATTTATTATATATACACACATACATATATATATA [CACACA_site8669]”, the “gcPBM binding intensity (ln)” value was 9.84 ± 0.16.
With “ATAAGAAAAAAGAACTGTACTAATAAAATATAAAAA [XGTACX_site3715]” the “gcPBM binding intensity (ln)” value was 8.71 ± 0.38.
“ATTATATAATTGTCTTCACACACACCGATATATATA [CACACA_site8883]” was tested, and the “gcPBM binding intensity (ln)” value was 8.93 ± 0.51.
With “ATAATATATATACAAACACACAATTGTGTCCACATT [CACACA_site1747]” the “gcPBM binding intensity (ln)” value was 8.94 ± 0.28.
In the case of “TGTACATATATATAATATATATATCATCATATTTTC [CACACA_negctrl_site1750]”, the “gcPBM binding intensity (ln)” value is reported as 8.47 ± 0.38.
With “ATTCACGTGTCTTAAAAAAAAAAAAAAGAAAAAAAG [CACACA_negctrl_site573]” the “gcPBM binding intensity (ln)” value was 8.34 ± 0.39.
In the case of “ATATATATATATATATGTACATATATATACATATAT [XGTACX_site6987]”, the “gcPBM binding intensity (ln)” value is reported as 10.1 ± 0.43.
In the case of “TATATATATATATCCACACACATACAGATATTAAGA [CACACA_site4214]”, the “gcPBM binding intensity (ln)” value is reported as 10 ± 0.29.
In the case of “AGTATACGAATAAAATGTACATACAAATTGTTGTAA [XGTACX_site36]”, the “gcPBM binding intensity (ln)” value is reported as 8.67 ± 0.41.
For “TCCTTAAAATATATCACACATTTCGTTCATTTATAA [CACACA_site4346]”, the “gcPBM binding intensity (ln)” value was 8.72 ± 0.38.
In the case of “AATATGATTATTACCCGTACATATTACCTTATGGTA [XGTACX_site1714]”, the “gcPBM binding intensity (ln)” value is reported as 8.52 ± 0.3.
“AATGATATTATCTCTTCACACACTCACATACAGACA [CACACA_site8335]” was tested, and the “gcPBM binding intensity (ln)” value was 8.64 ± 0.41.
With “TTTTAAAAAAATAAAAAATAATAAAAAAAATAAAAA [CACACA_negctrl_site1693]” the “gcPBM binding intensity (ln)” value was 8.39 ± 0.26.
For “TCAGGAATATAAAGTGCACACATAATTTGGGGGCAA [CACACA_site7974]”, the “gcPBM binding intensity (ln)” value was 9.62 ± 0.19.
With “TATATAAGGATATATACACACATATAGGTATTTATA [CACACA_site7092]” the “gcPBM binding intensity (ln)” value was 8.34 ± 0.47.
“GTGCATATGTAGATATGTACATATTTATTTATTATT [XGTACX_site7343]” was tested, and the “gcPBM binding intensity (ln)” value was 8.38 ± 0.16.
For “AAAAATAAATAAAGTGGTACATAAAAAAGAGAAATT [XGTACX_site874]”, the “gcPBM binding intensity (ln)” value was 9.04 ± 0.43.
In the case of “GCGGCGGTATCATGCACACGTATATATTGTAACAGT [CACACA_site4958]”, the “gcPBM binding intensity (ln)” value is reported as 8.8 ± 0.4.
With “TCATTGAAAAAAATGTGTACTCATCAAGTATATATT [XGTACX_site6430]” the “gcPBM binding intensity (ln)” value was 8.55 ± 0.3.
In the case of “TTTACAGATACATTCACACATAAATTCATGTATAAT [CACACA_site5387]”, the “gcPBM binding intensity (ln)” value is reported as 8.4 ± 0.31.
In the case of “ATTGTTATGAGAACAGCACACAAGCTACATCATATA [CACACA_site8192]”, the “gcPBM binding intensity (ln)” value is reported as 8.42 ± 0.34.
With “ATATATAATTTTTGTTGTACATTATAAAAATAATTA [XGTACX_site2738]” the “gcPBM binding intensity (ln)” value was 8.41 ± 0.31.
In the case of “ACCGAAGGAATTTATAGTACACATCATAAATAAATT [XGTACX_site4100]”, the “gcPBM binding intensity (ln)” value is reported as 8.54 ± 0.24.
With “AAAAATTTTTTTTCATTTGTTTTTATTCCGTAAAAA [CACACA_negctrl_site1217]” the “gcPBM binding intensity (ln)” value was 8.48 ± 0.46.
For “AATATAAAAAAAAAATGTACATATTATATATATATA [XGTACX_site5113]”, the “gcPBM binding intensity (ln)” value was 9.74 ± 0.45.
For “AGTTTGATTTTTTCTTATAATATATTATTATATATT [CACACA_negctrl_site376]”, the “gcPBM binding intensity (ln)” value was 8.73 ± 0.45.
In the case of “TATAATATAAAATAATGTACTTTGAAATATGACATA [XGTACX_site3579]”, the “gcPBM binding intensity (ln)” value is reported as 8.32 ± 0.3.
“TTTTTATTAATAGATATAAATATATAATATGAATGT [TGCATGCA_negctrl_site309]” was tested, and the “gcPBM binding intensity (ln)” value was 8.23 ± 0.54.
“CCATATAATATGAACAGTACACACAAAATAAATTCG [XGTACX_site7590]” was tested, and the “gcPBM binding intensity (ln)” value was 8.86 ± 0.32.
“AAATATTATAGCACCACACACTTATTTTATATATAT [CACACA_site5281]” was tested, and the “gcPBM binding intensity (ln)” value was 8.89 ± 0.14.
“GAAAATTTAATATAGAACGAAAGCATACACATATAT [GTGCAC_negctrl_site424]” was tested, and the “gcPBM binding intensity (ln)” value was 8.85 ± 0.68.
“ATATATATATATATTTGTACAGATTTATATTATAAT [XGTACX_site7612]” was tested, and the “gcPBM binding intensity (ln)” value was 9.96 ± 0.23.
With “TCTTCAAACAAAAAAAATAATAAAAAGTACAAAATG [CACACA_negctrl_site363]” the “gcPBM binding intensity (ln)” value was 8.88 ± 0.4.
For “TTATGTCATAAATGCACACATATATAAATACAGATA [CACACA_site4959]”, the “gcPBM binding intensity (ln)” value was 8.53 ± 0.28.
With “ATATGTGATTTCTAATGTACACAAAAAAAAAAAAAA [XGTACX_site7701]” the “gcPBM binding intensity (ln)” value was 8.4 ± 0.39.
In the case of “TTTTTGTTTTTGTTTTGTACTCATACATACTATCAT [XGTACX_site4210]”, the “gcPBM binding intensity (ln)” value is reported as 8.99 ± 0.44.
“GGGGTATCTTCCTATGCACACTTGTTATGTACTAAC [CACACA_site4610]” was tested, and the “gcPBM binding intensity (ln)” value was 9.53 ± 0.42.
In the case of “ATATATACGTATGAATGTATATTTGTTTGATTTTTT [CACACA_negctrl_site835]”, the “gcPBM binding intensity (ln)” value is reported as 8.39 ± 0.4.
In the case of “CTTTTATTAAAATTCACACACATAAATTTTTATAAA [CACACA_site1993]”, the “gcPBM binding intensity (ln)” value is reported as 8.29 ± 0.37.
With ATTTTCATGATAAAGGTGCAATTATTTTTATAAGAA the “gcPBM binding intensity (ln)” value was 8.74 ± 0.13.
For “TATATATATATATATGGTACAGTTTATGCCTTTTAA [XGTACX_site6695]”, the “gcPBM binding intensity (ln)” value was 10.1 ± 0.39.
With “TATAATATATACAAATGTACATATATATATATATAT [XGTACX_site4559]” the “gcPBM binding intensity (ln)” value was 10.2 ± 0.42.
In the case of “TTATTTATAATATATACACACTAACATTATTTATCC [CACACA_site4835]”, the “gcPBM binding intensity (ln)” value is reported as 8.41 ± 0.44.
In the case of “AAAAAAACATGAAACACACACAAATATATATATATA [CACACA_site1884]”, the “gcPBM binding intensity (ln)” value is reported as 10 ± 0.21.
With “TTCGTATATTATTAATGTACATTATAAAATCAATAT [XGTACX_site5751]” the “gcPBM binding intensity (ln)” value was 8.63 ± 0.27.
“AACAATATTATTGTTTGTACTCACATATATAATATA [XGTACX_site8063]” was tested, and the “gcPBM binding intensity (ln)” value was 8.36 ± 0.36.
In the case of “ATATATATGTGAAAATCACACATTGCTTATCTGTAA [CACACA_site6044]”, the “gcPBM binding intensity (ln)” value is reported as 8.35 ± 0.42.
With “TGTTTTATTATTTATAGTACATAAAAAAATATTGTA [XGTACX_site8963]” the “gcPBM binding intensity (ln)” value was 8.25 ± 0.24.
With “AAGGCATACAATACCTGTACGCAACCTTAAAAAGAA [XGTACX_site6070]” the “gcPBM binding intensity (ln)” value was 8.59 ± 0.36.
In the case of “AAAAAAAAAAAAAAAAAAAAAAAAAAAATTCTATAT [GTGCAC_negctrl_site468]”, the “gcPBM binding intensity (ln)” value is reported as 9.28.
“CACACGCACAAAAACACACACAAAGGTGTTCTTATA [CACACA_site6724]” was tested, and the “gcPBM binding intensity (ln)” value was 8.45 ± 0.45.
In the case of “AGATATTTCATTTAAAGTACATTCTTTATCACATAA [XGTACX_site6731]”, the “gcPBM binding intensity (ln)” value is reported as 8.33 ± 0.38.
In the case of “TTATTTTTTTTTTTTCGTACTTATTTATCTTGGTAT [XGTACX_site78]”, the “gcPBM binding intensity (ln)” value is reported as 8.55 ± 0.51.
“AAAATCTATAATATAACACACATATATTCTATATGG [CACACA_site7821]” was tested, and the “gcPBM binding intensity (ln)” value was 8.06 ± 0.4.
For “TTCCTGTTAATTACAACACACAATTCTTATTTTATG [CACACA_site6507]”, the “gcPBM binding intensity (ln)” value was 8.81 ± 0.42.
